For some assays here: The name of at least one read-out is uncertain. Some results were stated once for a whole list of compounds, not compound by compound.
What was measured:
C. albicans (ATCC 90028) = experiment: MIC80 and checkerboard synergy with antifungal agents; assay type: cell-based, Candida albicans; details: 48 hours
C. glabrata (ATCC 90030) = experiment: as above; assay type: cell-based, Candida glabrata; details: for conc. for 4-fold synergy: 48 hours; for conc. for 4-fold synergy (MIC50): MIC50 endpoint
C. glabrata = experiment: Post-antifungal effect (PAFE); assay type: cell-based; details: drug alone, 2 h exposure
Method: The post-antifungal effect (PAFE) is the time needed to achieve one log10 of cell growth after drug removal. One-two colonies are resuspended in 5 ml YPD. […] Cells are incubated at 30° C. overnight. In the morning, the optical density at 600 nm is read. Cells at A600 the closest but not surpassing 0.3 (early log-phase cells) are picked for further treatments as follows: […] Counts of CFU/ml are performed at time zero, before and after diluting the cells and at predetermined time points in order to determine the PAFE and the cidal potential of each drug combination (FIGS. 5-10).

SMILES: COc1ccc(C(OC)C(C)(C)CCCCC(=O)NO)cc1 (centres unmarked) [drawing 136]
- conc. for 4-fold synergy (C. albicans (ATCC 90028); with voriconazole): 0.5 µg/mL

SMILES: COc1ccc(C(OC)C(C)(C)CCCCC(=O)NO)cc1 (centres unmarked) [drawing 124]
- conc. for 4-fold synergy (C. albicans (ATCC 90028); with itraconazole): 0.5 µg/mL

SMILES: N#Cc1ccc(-c2ccc(OCCC(=O)NO)cc2)cc1 [Cpd 21]
- conc. for 4-fold synergy (C. albicans (ATCC 90028); with ketoconazole): 0.5 µg/mL
- conc. for 4-fold synergy (C. glabrata (ATCC 90030); with ketoconazole): 2.75 µg/mL

SMILES: Nc1ccccc1NC(=O)c1ccc(CNC(=O)OCc2cccnc2)cc1 [MS275, reference compound]
- conc. for 4-fold synergy (C. albicans (ATCC 90028); with ketoconazole): >64 µg/mL
- conc. for 4-fold synergy (C. glabrata (ATCC 90030); with ketoconazole): 128 µg/mL

SMILES: O=C(CCc1ccc(CCCc2ccccc2)cc1)NO [drawing 146]
- conc. for 4-fold synergy (C. glabrata (ATCC 90030); with voriconazole): 1 µg/mL

SMILES: O=C(Cc1ccc(CCCCCc2ccccc2)cc1)NO
- conc. for 4-fold synergy (MIC50) (C. glabrata (ATCC 90030); with ketoconazole): 0.2 (MIC50) μg/ml

SMILES: O=C(CCc1ccc(CCc2ccccc2)cc1)NO [drawing 142]
- conc. for 4-fold synergy (C. albicans (ATCC 90028); with voriconazole): 0.125 µg/mL

SMILES: O=C(Cc1ccc(CCCCc2cccc(C(F)(F)F)c2)cc1)NO
- conc. for 4-fold synergy (MIC50) (C. glabrata (ATCC 90030); with ketoconazole): 0.4 (MIC50) μg/ml

SMILES: O=C(Cc1ccc(CCCc2ccccc2)cc1)NO [Cpd 5]
- conc. for 4-fold synergy (C. albicans (ATCC 90028); with fluconazole): 0.125 µg/mL
- conc. for 4-fold synergy (C. albicans (ATCC 90028); with ketoconazole): 0.125 µg/mL
- conc. for 4-fold synergy (C. glabrata (ATCC 90030); with fluconazole): 2.0 µg/mL
- conc. for 4-fold synergy (C. glabrata (ATCC 90030); with ketoconazole): 1 µg/mL

SMILES: O=C(Cc1ccc(CCCCc2ccccc2)cc1)NO [drawing 132]
- conc. for 4-fold synergy (C. glabrata (ATCC 90030); with itraconazole): 0.5 µg/mL

SMILES: O=C(CCCCCC/C(=N\O)c1ccc(-c2ccccc2)cc1)NO [drawing 129]
- conc. for 4-fold synergy (C. albicans (ATCC 90028); with itraconazole): 0.25 µg/mL

SMILES: COc1ccc(C(OC)C(C)(C)/C=C/C=C/C(=O)NO)cc1 (centres unmarked) [Cpd 9]
- conc. for 4-fold synergy (C. albicans (ATCC 90028); with ketoconazole): 0.25 µg/mL

SMILES: O=C(CCc1ccc(CCCc2ccccc2)cc1)NO [drawing 140]
- conc. for 4-fold synergy (C. albicans (ATCC 90028); with voriconazole): 0.125 µg/mL

SMILES: O=C(CCc1ccc(CCc2ccccc2)cc1)NO [Cpd 7]
- conc. for 4-fold synergy (C. albicans (ATCC 90028); with fluconazole): 0.125 µg/mL
- conc. for 4-fold synergy (C. albicans (ATCC 90028); with ketoconazole): 0.125 µg/mL
- conc. for 4-fold synergy (C. glabrata (ATCC 90030); with fluconazole): 2.0 µg/mL
- conc. for 4-fold synergy (C. glabrata (ATCC 90030); with ketoconazole): 0.5 µg/mL

SMILES: O=C(NO)c1ccc(CCCCCc2ccccc2)cc1 [Cpd 3]
- conc. for 4-fold synergy (C. albicans (ATCC 90028); with ketoconazole): 0.25 µg/mL

SMILES: O=C(CCc1ccc(CCCc2ccccc2)cc1)NO [drawing 134]
- conc. for 4-fold synergy (C. glabrata (ATCC 90030); with itraconazole): 1 µg/mL

SMILES: O=C(/C=C/c1ccc(CN(CCO)CCc2c[nH]c3ccccc23)cc1)NO [LAQ-824, reference compound]
- conc. for 4-fold synergy (C. albicans (ATCC 90028); with ketoconazole): 64 µg/mL
- conc. for 4-fold synergy (C. glabrata (ATCC 90030); with ketoconazole): 128 µg/mL

SMILES: O=C(CCc1ccc(CCCc2ccccc2)cc1)NO [Cpd 6]
- conc. for 4-fold synergy (C. albicans (ATCC 90028); with fluconazole): 0.125 µg/mL
- conc. for 4-fold synergy (C. albicans (ATCC 90028); with ketoconazole): 0.125 µg/mL
- conc. for 4-fold synergy (C. glabrata (ATCC 90030); with fluconazole): 2.0 µg/mL
- conc. for 4-fold synergy (C. glabrata (ATCC 90030); with ketoconazole): 0.5 µg/mL

SMILES: O=C(Cc1ccc(CCCCc2ccccc2)cc1)NO [Cpd 4]
- PAFE (C. glabrata): ≤ 0.5 h
- conc. for 4-fold synergy (C. albicans (ATCC 90028); with fluconazole): 0.125 µg/mL
- conc. for 4-fold synergy (C. albicans (ATCC 90028); with ketoconazole): 0.125 µg/mL
- conc. for 4-fold synergy (C. glabrata (ATCC 90030); with fluconazole): 0.25 µg/mL
- conc. for 4-fold synergy (C. glabrata (ATCC 90030); with ketoconazole): 0.125 µg/mL

SMILES: O=C(Cc1ccc(CCCCc2ccc3c(c2)OCO3)cc1)NO
- conc. for 4-fold synergy (MIC50) (C. glabrata (ATCC 90030); with ketoconazole): 3.1 (MIC50) μg/ml

SMILES: O=C(NO)c1ccc(CCCC(O)c2ccc3ccccc3c2)cc1 (centres unmarked) [Cpd 16]
- conc. for 4-fold synergy (C. albicans (ATCC 90028); with ketoconazole): 0.25 µg/mL

SMILES: COc1ccc(C(OC)C(C)(C)CCCCC(=O)NO)cc1 (centres unmarked) [Cpd 11]
- conc. for 4-fold synergy (C. albicans (ATCC 90028); with fluconazole): 0.5 µg/mL
- conc. for 4-fold synergy (C. albicans (ATCC 90028); with ketoconazole): 0.5 µg/mL
- conc. for 4-fold synergy (C. glabrata (ATCC 90030); with fluconazole): 1.0 µg/mL
- conc. for 4-fold synergy (C. glabrata (ATCC 90030); with ketoconazole): 4 µg/mL

SMILES: O=C(/C=C/c1ccc(CNc2cccc(Cl)c2)cc1)NO [Cpd 18]
- conc. for 4-fold synergy (C. albicans (ATCC 90028); with ketoconazole): 0.25 µg/mL

SMILES: O=C(Cc1ccc(CCCc2ccccc2)cc1)NO [drawing 133]
- conc. for 4-fold synergy (C. glabrata (ATCC 90030); with itraconazole): 0.5 µg/mL

SMILES: Nc1ccc(SCC(=O)NCCc2ccccc2)cc1 [Cpd 24]
- conc. for 4-fold synergy (C. albicans (ATCC 90028); with ketoconazole): 0.25 µg/mL

SMILES: O=C(Cc1ccccc1)NC(=S)Nc1ccc(Nc2ccnc3ccsc23)cc1 [Cpd 20]
- conc. for 4-fold synergy (C. albicans (ATCC 90028); with ketoconazole): 0.5 µg/mL

SMILES: CC(/C=C/C(=O)NO)=C\C(C)Cc1ccc(N(C)C)cc1 (centres unmarked) [drawing 125]
- conc. for 4-fold synergy (C. albicans (ATCC 90028); with itraconazole): 0.39 µg/mL

SMILES: O=C(NO)c1ccc(CCSc2ccccc2)cc1 [Cpd 8]
- conc. for 4-fold synergy (C. albicans (ATCC 90028); with ketoconazole): 0.5 µg/mL

SMILES: CC(/C=C/C(=O)NO)=C\C(C)Cc1ccc(N(C)C)cc1 (centres unmarked) [drawing 143]
- conc. for 4-fold synergy (C. glabrata (ATCC 90030); with voriconazole): 0.39 µg/mL

SMILES: O=C(Cc1ccc(CCCCc2ccccc2)cc1)NO [drawing 144]
- conc. for 4-fold synergy (C. glabrata (ATCC 90030); with voriconazole): 0.5 µg/mL

SMILES: O=C(Cc1ccc(CCCc2ccccc2)cc1)NO [drawing 145]
- conc. for 4-fold synergy (C. glabrata (ATCC 90030); with voriconazole): 2 µg/mL

SMILES: O=C(Cc1ccc(CCCc2ccccc2)cc1)NO [drawing 127]
- conc. for 4-fold synergy (C. albicans (ATCC 90028); with itraconazole): 0.25 µg/mL

SMILES: O=C(Cc1ccc(CCCCc2ccc3[nH]ccc3c2)cc1)NO
- conc. for 4-fold synergy (MIC50) (C. glabrata (ATCC 90030); with ketoconazole): 0.2 (MIC50) μg/ml

SMILES: C[C@H](/C=C/C=C/C(=O)NO)Oc1ccc(-c2ccccc2)cc1 [Cpd 15]
- conc. for 4-fold synergy (C. albicans (ATCC 90028); with ketoconazole): 0.25 µg/mL

SMILES: O=C(Cc1ccc(CCCCc2ccc(C(F)(F)F)cc2)cc1)NO
- conc. for 4-fold synergy (MIC50) (C. glabrata (ATCC 90030); with ketoconazole): 0.8 (MIC50) μg/ml

SMILES: O=C(CCc1ccc(CCc2ccccc2)cc1)NO [drawing 147]
- conc. for 4-fold synergy (C. glabrata (ATCC 90030); with voriconazole): 0.5 µg/mL

SMILES: CC(/C=C/C(=O)NO)=C\[C@@H](C)C(=O)c1ccc(N(C)C)cc1 [TSA, trichostatin A, reference compound]
- conc. for 4-fold synergy (C. albicans (ATCC 90028); with ketoconazole): 0.5 µg/mL
- conc. for 4-fold synergy (C. glabrata (ATCC 90030); with ketoconazole): 32 to 64 µg/mL

SMILES: O=C(CCCCCC/C(=N\O)c1ccc(-c2ccccc2)cc1)NO [drawing 141]
- conc. for 4-fold synergy (C. albicans (ATCC 90028); with voriconazole): 0.125 µg/mL

SMILES: O=C(Cc1ccc(CCCCc2ccccc2C(F)(F)F)cc1)NO
- conc. for 4-fold synergy (MIC50) (C. glabrata (ATCC 90030); with ketoconazole): 0.4 (MIC50) μg/ml

SMILES: O=C(NO)c1cccc(CCCc2ccccc2)c1 [Cpd 1]
- conc. for 4-fold synergy (C. albicans (ATCC 90028); with ketoconazole): 1.0 µg/mL
- conc. for 4-fold synergy (C. glabrata (ATCC 90030); with ketoconazole): 16 µg/mL

SMILES: C[C@@H](c1ncncc1F)[C@](O)(Cn1cncn1)c1ccc(F)cc1F [voriconazole, reference compound]
- PAFE (C. glabrata): ≤ 0.5 h

SMILES: O=C(Cc1ccc(CCCCc2ccccc2)cc1)NO [drawing 138]
- conc. for 4-fold synergy (C. albicans (ATCC 90028); with voriconazole): 0.125 µg/mL

SMILES: CC(/C=C/C(=O)NO)=C\C(C)Cc1ccc(N(C)C)cc1 (centres unmarked) [Cpd 12]
- conc. for 4-fold synergy (C. albicans (ATCC 90028); with fluconazole): 4 µg/mL
- conc. for 4-fold synergy (C. albicans (ATCC 90028); with ketoconazole): 0.06 µg/mL
- conc. for 4-fold synergy (C. glabrata (ATCC 90030); with fluconazole): 4 µg/mL
- conc. for 4-fold synergy (C. glabrata (ATCC 90030); with ketoconazole): 4 µg/mL

SMILES: O=C(Cc1ccc(CCCCc2cc(F)c(F)cc2F)cc1)NO
- conc. for 4-fold synergy (MIC50) (C. glabrata (ATCC 90030); with ketoconazole): 0.2 (MIC50) μg/ml

SMILES: O=C(NO)c1ccc(CN2c3ccccc3NC(=O)[C@H]2Cc2cccc(C(F)(F)F)c2)cc1 [Cpd 23]
- conc. for 4-fold synergy (C. albicans (ATCC 90028); with ketoconazole): 0.5 µg/mL

SMILES: O=C(Cc1ccc(CCCCc2ccccc2)cc1)NO [drawing 126]
- conc. for 4-fold synergy (C. albicans (ATCC 90028); with itraconazole): 0.1 µg/mL

SMILES: CC(/C=C/C(=O)NO)=C\C(C)Cc1ccc(N(C)C)cc1 (centres unmarked) [drawing 137]
- conc. for 4-fold synergy (C. albicans (ATCC 90028); with voriconazole): 0.78 µg/mL

SMILES: O=C(Cc1ccc(CCC#Cc2ccc3nonc3c2)cc1)NO
- conc. for 4-fold synergy (MIC50) (C. glabrata (ATCC 90030); with ketoconazole): 1.6 (MIC50) μg/ml

SMILES: O=C(CCc1ccc(CCc2ccccc2)cc1)NO [drawing 135]
- conc. for 4-fold synergy (C. glabrata (ATCC 90030); with itraconazole): 2 µg/mL

SMILES: O=C(Cc1cccc(CCCCc2ccccc2)c1)NO
- conc. for 4-fold synergy (MIC50) (C. glabrata (ATCC 90030); with ketoconazole): 1 (MIC50) μg/ml

SMILES: C=C(CCCCCCC(=O)NO)c1ccc2ccccc2c1 [Cpd 14]
- conc. for 4-fold synergy (C. albicans (ATCC 90028); with ketoconazole): 0.25 µg/mL
- conc. for 4-fold synergy (C. glabrata (ATCC 90030); with ketoconazole): 4 to 8 µg/mL

SMILES: O=C(Cc1ccc(CCCc2ccccc2)cc1)NO [drawing 139]
- conc. for 4-fold synergy (C. albicans (ATCC 90028); with voriconazole): 0.125 µg/mL

SMILES: COC(c1ccc(N(C)C)cc1)C(C)/C=C(C)/C=C/C(=O)NO (centres unmarked) [Cpd 10]
- conc. for 4-fold synergy (C. albicans (ATCC 90028); with ketoconazole): 0.5 µg/mL

SMILES: O=C(CCc1ccc(CCCc2ccccc2)cc1)NO [drawing 128]
- conc. for 4-fold synergy (C. albicans (ATCC 90028); with itraconazole): 0.25 µg/mL

SMILES: O=C(CCc1ccc(CCc2ccccc2)cc1)NO [drawing 130]
- conc. for 4-fold synergy (C. albicans (ATCC 90028); with itraconazole): 0.25 µg/mL
